Reference: the supplement of paper PMC7826260
Some of the results follow. The data describe in vitro nicking of single-stranded DNA by Rep domains at 3 µM enzyme and 37 °C for 1 h; the strands have 90 letters, of which the middle is given. Values are log2 of uncut reads against the no-enzyme pool; uncut sequences lie near 0, cut ones below; no hit call is given. Because reads are shares of a total, they shift together; where an enzyme cuts many sequences, the uncut ones exceed 0.

Assays:
Assay in all cases: uncleaved DNA left, log2 of reads against the no-enzyme library (log2 ratio); higher = less cleavage (more negative = more Rep cleavage of the k-mer); sequences stand for … in CTCGTCCG…ACCGGAGA
[1] = tested on: T1, Rep nickase domain of Muscovy duck circovirus
T1 sequence (residues 1-111 of Rep, tag left off): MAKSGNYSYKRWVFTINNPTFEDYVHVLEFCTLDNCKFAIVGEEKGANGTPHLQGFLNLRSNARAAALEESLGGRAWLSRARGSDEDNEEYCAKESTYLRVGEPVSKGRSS
Procedure: (§1)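 A pool of 90-nt single-stranded DNAs with seven random bases just before the constant AC of the nick site (name = the seven bases) was cut by 3 µM recombinant His6-SUMO-tagged Rep nickase domain (300 nM DNA, 50 mM HEPES pH 8.0, 50 mM NaCl, 1 mM MnCl2, 1 h, 37 °C, three replicates). Uncut DNA was amplified and sequenced.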

[2] = tested on: T2, Rep nickase domain of banana bunchy top virus
T2 sequence (residues 1-94 of Rep, tag left off): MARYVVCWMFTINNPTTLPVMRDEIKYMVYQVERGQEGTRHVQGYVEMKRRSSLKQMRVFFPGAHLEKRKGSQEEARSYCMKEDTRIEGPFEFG
Procedure: as §1

[3] = tested on: T3, Rep nickase domain of cabbage leaf curl virus
T3 sequence (residues 1-116 of Rep, tag left off): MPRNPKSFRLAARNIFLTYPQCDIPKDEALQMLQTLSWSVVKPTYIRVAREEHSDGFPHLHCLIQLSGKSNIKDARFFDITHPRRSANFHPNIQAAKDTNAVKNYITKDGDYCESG
Procedure: as §1

[4] = tested on: T4, Rep nickase domain of chickpea chlorotic dwarf virus
T4 sequence (residues 1-124 of Rep, tag left off): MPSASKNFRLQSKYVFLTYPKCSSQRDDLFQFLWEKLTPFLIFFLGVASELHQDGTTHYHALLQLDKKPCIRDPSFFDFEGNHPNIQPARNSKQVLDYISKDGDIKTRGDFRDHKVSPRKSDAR
Procedure: as §1

[5] = tested on: T5, Rep nickase domain of faba bean necrotic yellows virus
T5 sequence (residues 1-98 of Rep, tag left off): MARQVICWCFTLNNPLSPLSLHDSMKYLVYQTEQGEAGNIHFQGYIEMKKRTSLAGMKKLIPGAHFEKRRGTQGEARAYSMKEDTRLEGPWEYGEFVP
Procedure: as §1

[6] = tested on: T6, Rep nickase domain of maize striate mosaic virus
T6 sequence (residues 1-117 of Rep, tag left off): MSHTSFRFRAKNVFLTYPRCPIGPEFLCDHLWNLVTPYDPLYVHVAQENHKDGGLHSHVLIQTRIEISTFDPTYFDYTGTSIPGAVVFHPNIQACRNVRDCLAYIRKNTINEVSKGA
Procedure: as §1

[7] = tested on: T7, Rep nickase domain of porcine circovirus 2
T7 sequence (residues 2-116 of Rep, tag left off): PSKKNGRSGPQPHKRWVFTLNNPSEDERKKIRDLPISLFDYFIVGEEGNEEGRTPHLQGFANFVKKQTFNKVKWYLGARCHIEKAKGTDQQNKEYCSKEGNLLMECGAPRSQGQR
Procedure: as §1

[8] = tested on: T8, Rep nickase domain of tomato golden mosaic virus
T8 sequence (residues 1-124 of Rep, tag left off): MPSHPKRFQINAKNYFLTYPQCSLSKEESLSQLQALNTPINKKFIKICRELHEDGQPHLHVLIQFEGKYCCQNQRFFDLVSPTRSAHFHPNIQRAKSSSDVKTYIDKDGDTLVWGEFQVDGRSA
Procedure: as §1

[9] = tested on: T9, Rep nickase domain of tomato yellow leaf curl virus
T9 sequence (residues 1-136 of Rep, tag left off): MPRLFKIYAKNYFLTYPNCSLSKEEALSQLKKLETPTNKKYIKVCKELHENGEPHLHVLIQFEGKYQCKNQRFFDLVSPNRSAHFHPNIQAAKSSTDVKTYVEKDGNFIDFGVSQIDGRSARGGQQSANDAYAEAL
Procedure: as §1

[10] = tested on: T10, Rep nickase domain of wheat dwarf virus
T10 sequence (residues 1-137 of Rep, tag left off): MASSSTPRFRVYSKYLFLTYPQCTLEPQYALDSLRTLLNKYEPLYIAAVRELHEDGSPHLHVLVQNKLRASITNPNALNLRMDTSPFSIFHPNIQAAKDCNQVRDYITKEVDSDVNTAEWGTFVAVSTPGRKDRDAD
Procedure: as §1

| Sequence | uncleaved DNA left (log2) [1] | uncleaved DNA left (log2) [2] | uncleaved DNA left (log2) [3] | uncleaved DNA left (log2) [4] | uncleaved DNA left (log2) [5] | uncleaved DNA left (log2) [6] | uncleaved DNA left (log2) [7] | uncleaved DNA left (log2) [8] | uncleaved DNA left (log2) [9] | uncleaved DNA left (log2) [10] |
| --- | --- | --- | --- | --- | --- | --- | --- | --- | --- | --- |
| CCGTAAC | 0.0974 | 0.0157 | -0.0812 | -1.19 | 0.0735 | -0.45 | 0.0946 | 0.134 | 0.0137 | -0.0696 |
| TCTGAGA | 0.117 | 0.024 | 0.419 | 0.513 | 0.112 | -0.17 | 0.084 | 0.0373 | -0.0527 | 0.0772 |
| GCCCGTA | 0.152 | 0.0494 | 0.263 | 0.306 | 0.191 | 0.0541 | 0.05 | 0.0992 | 0.105 | 0.113 |
| GGGCGGA | -0.0175 | 0.00551 | 0.645 | 1.7 | -0.101 | 2.02 | 0.0562 | -0.0181 | -0.0769 | -0.0152 |
| GACATGC | 0.0599 | -0.0902 | -0.0557 | 0.638 | 0.044 | -0.367 | 0.141 | 0.0102 | 0.00624 | 0.035 |
| GTCATCG | 0.0569 | 0.0503 | -0.0271 | 0.243 | 0.00196 | 0.392 | 0.0411 | 0.0371 | 0.00125 | 0.0445 |
| GTCTTAC | -0.0735 | 0.131 | 0.276 | 0.544 | -0.0767 | 1.64 | -0.388 | 0.0327 | 0.0326 | 0.0713 |
| AGAATGA | 0.0521 | 0.102 | 0.173 | 0.549 | 0.053 | 0.457 | 0.259 | 0.102 | 0.047 | 0.099 |
| CTTCATA | -0.00282 | 0.135 | -0.0916 | -1.05 | 0.103 | -0.631 | -0.063 | -0.0697 | 0.0494 | -0.023 |
| ACCGAAA | -0.108 | -0.0674 | -0.139 | -0.0534 | 0.0138 | -0.775 | 0.0978 | -0.0466 | 0.000261 | -0.039 |
| GTCAAGC | 0.0252 | 0.0218 | 0.23 | 0.802 | -0.0771 | 0.782 | 0.0257 | -0.00265 | 0.0487 | 0.083 |
| GCACGCG | -0.0257 | 0.0547 | -0.563 | 0.488 | 0.0326 | -0.313 | 0.183 | -0.00252 | 0.00906 | -0.162 |
| ACAGATC | -0.146 | -0.0493 | -0.164 | -0.075 | -0.132 | -0.822 | 0.0725 | -0.058 | -0.244 | -0.128 |
| AGGCGTG | 0.0896 | -0.074 | -0.282 | -0.0856 | -0.109 | -0.156 | 0.119 | -0.0304 | -0.000989 | -0.137 |
| TTTATGG | 0.0074 | 0.0316 | 0.506 | 1.33 | 0.111 | 1.68 | 0.181 | 0.192 | -0.0696 | 0.0634 |
| TTTCTAT | 0.00106 | -0.0866 | 0.206 | -0.442 | -0.019 | -0.176 | -0.162 | -0.104 | -0.0145 | -0.00169 |
| CTGCCCA | -0.0264 | -0.000205 | -0.16 | -0.761 | 0.0852 | -0.557 | -0.393 | -0.0424 | 0.0372 | -0.0749 |
| CCACCGT | -0.0726 | -0.0137 | -0.33 | -1.12 | 0.0256 | -0.869 | 0.0396 | 0.0269 | -0.117 | -0.107 |
| GGAGAAC | 0.0557 | 0.174 | 0.881 | 1.89 | -0.0112 | 2.17 | 0.193 | 0.127 | 0.123 | 0.164 |
| CAGCACA | 0.0731 | 0.0676 | 0.0106 | -1.88 | -0.0896 | -0.312 | -0.605 | 0.0381 | 0.0952 | 0.0143 |
| AGAGATG | -0.0127 | -0.049 | 0.0121 | 0.684 | -0.0495 | 1.62 | 0.133 | 0.0459 | -0.173 | -0.0087 |
| CCAGAAT | 0.141 | 0.156 | 0.287 | 0.215 | 0.184 | 0.484 | 0.0552 | 0.166 | 0.18 | 0.153 |
| ACCCCGC | -0.0182 | -0.0726 | -0.5 | -0.687 | -0.0394 | -0.838 | 0.03 | -0.00695 | -0.079 | -0.137 |
| AACACGA | 0.0549 | -0.11 | -0.384 | -0.617 | -0.0322 | -1.06 | 0.0767 | -0.0421 | -0.165 | -0.1 |
| CGCTACA | -0.0497 | -0.0722 | -0.307 | -2.06 | -0.0272 | -0.388 | -0.0908 | -0.0553 | 0.124 | -0.15 |
| TGGCTTC | -0.0331 | 0.0359 | 0.365 | 0.723 | -0.121 | 0.863 | 0.077 | -0.0552 | -0.0474 | 0.0767 |
| AGTGTGC | 0.0347 | 0.0748 | -0.341 | -0.36 | 0.105 | -0.758 | 0.238 | 0.051 | 0.0606 | 0.0344 |
| ACTCCGT | -0.0225 | -0.114 | -0.356 | -0.545 | -0.0238 | -1.08 | 0.0515 | 0.0451 | -0.109 | -0.0971 |
| TTGGAAG | -0.106 | -0.0615 | -0.777 | -0.587 | 0.0277 | -0.991 | 0.0471 | -0.0806 | -0.0382 | -0.151 |
